Reference: the supplement of paper PMC3334620
Whole data set: some 33,000 sequences, median “E-score (-0.5 to 0.5)” near -0.053, cut for the highest 2% near 0.37. This is one part of the list.

Target: Hap1 (UniProt P0CE41)
Assay: PBM E-score (8-mer binding enrichment) (E-score (-0.5 to 0.5)); higher = stronger / more preferred TF binding; most listed sequences are background and not binding sites
Conditions: protein concentration: 200 nM; construct: GST-DNA-binding domain
Summary of the method: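 E-scores (a modified Wilcoxon-Mann-Whitney statistic) were assigned by the Universal PBM Analysis Suite to every ungapped eight-base word pooled with its reverse complement. The input came from universal all-10-mer Agilent arrays made double-stranded by primer extension and probed with GST-tagged yeast transcription factors at about 100-200 nM. Fluorescent anti-GST detected bound protein, and masliner normalised the scans.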

Chain of UniProt P0CE41 (P0CE41 whole entry): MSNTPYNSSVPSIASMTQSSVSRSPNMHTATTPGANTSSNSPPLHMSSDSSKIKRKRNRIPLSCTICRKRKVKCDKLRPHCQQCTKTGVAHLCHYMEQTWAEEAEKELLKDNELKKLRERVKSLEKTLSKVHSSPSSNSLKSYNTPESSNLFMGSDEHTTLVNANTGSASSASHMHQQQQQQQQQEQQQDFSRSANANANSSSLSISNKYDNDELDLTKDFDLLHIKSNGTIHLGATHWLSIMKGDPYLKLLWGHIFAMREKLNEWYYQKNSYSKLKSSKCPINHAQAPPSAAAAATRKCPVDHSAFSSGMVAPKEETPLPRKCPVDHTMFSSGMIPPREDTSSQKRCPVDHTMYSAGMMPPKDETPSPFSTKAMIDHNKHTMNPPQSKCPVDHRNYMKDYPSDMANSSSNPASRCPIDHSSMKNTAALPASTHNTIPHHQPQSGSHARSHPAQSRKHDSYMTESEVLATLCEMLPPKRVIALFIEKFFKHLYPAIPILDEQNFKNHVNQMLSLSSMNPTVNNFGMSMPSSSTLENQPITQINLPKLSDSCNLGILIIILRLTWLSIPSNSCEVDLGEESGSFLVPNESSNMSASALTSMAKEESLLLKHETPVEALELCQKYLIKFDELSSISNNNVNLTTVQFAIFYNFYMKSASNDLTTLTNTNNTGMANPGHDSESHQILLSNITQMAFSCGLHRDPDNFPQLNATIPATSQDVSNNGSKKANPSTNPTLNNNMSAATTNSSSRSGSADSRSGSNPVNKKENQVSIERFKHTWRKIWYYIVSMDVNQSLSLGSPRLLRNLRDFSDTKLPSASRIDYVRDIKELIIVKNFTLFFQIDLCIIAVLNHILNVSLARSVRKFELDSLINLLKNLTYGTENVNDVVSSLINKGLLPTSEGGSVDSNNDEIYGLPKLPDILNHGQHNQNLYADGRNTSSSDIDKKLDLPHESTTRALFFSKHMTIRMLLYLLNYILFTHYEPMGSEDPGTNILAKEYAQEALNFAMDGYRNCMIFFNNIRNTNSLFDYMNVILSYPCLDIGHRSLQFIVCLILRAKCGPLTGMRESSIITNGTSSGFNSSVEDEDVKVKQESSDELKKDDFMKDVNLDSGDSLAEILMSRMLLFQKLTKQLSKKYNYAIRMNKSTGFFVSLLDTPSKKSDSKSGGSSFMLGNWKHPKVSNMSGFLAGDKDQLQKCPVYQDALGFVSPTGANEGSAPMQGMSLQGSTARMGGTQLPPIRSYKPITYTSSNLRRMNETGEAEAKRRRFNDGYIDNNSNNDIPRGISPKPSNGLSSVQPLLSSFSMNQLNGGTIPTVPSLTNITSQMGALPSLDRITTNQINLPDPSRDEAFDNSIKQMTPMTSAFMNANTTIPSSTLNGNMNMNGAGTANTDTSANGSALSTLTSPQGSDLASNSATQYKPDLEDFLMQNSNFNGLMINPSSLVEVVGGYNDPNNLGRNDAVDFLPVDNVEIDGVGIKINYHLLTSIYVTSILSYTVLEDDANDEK

Sequence | PBM E-score
AGCGATGA | 0.064
GCCTGAAA | 0.0421
GCGCACCC | 0.0489
ACACACGG | 0.0536
AACCGACC | 0.135
ATGCTGAG | -0.281
CAACGCAG | -0.111
GAATAACC | 0.0699
ACCCTTTC | -0.0409
ACAGACGC | -0.0711
GCCTCGTA | -0.0814
GAACGTGA | 0.0153
CACCTGCA | -0.165
GTAGCCGA | 0.129
CATGCTAA | -0.285
GACGCTCC | 0.0274
CGTCGGAG | 0.313
GGGCGCCC | 0.354
CACGTCTC | 0.0507
ATAAACCG | 0.26
CTAATGCA | -0.269
GAGGGGCA | -0.17
GGAAGGTA | -0.0638
GAGTAACC | 0.13
AGTGCTAT | -0.276

Sequence | PBM E-score
CAATGAGG | -0.259
CAATAGGC | -0.118
CTGTATGC | -0.0753
GAAAGATC | 0.111
GGGGGGAA | 0.0101
AGAGAAAC | -0.136
CCAATGCA | -0.186
GTAAACGA | -0.0548
GTGACTGA | -0.323
AACCGGCC | 0.344
GCGAGAAA | 0.116
TAACGTCA | -0.178
CTGGGGCA | -0.306
AGAACCCC | -0.0703
AAGGCGCA | 0.0887
CCACCTCG | 0.155
ACTGCCTA | -0.375
AAAAGTAA | -0.0896
CACGACGG | -0.0484
CCGAAAGG | 0.324
CGATAGCC | 0.208
AGGTGAAT | 0.104
ACATCCAG | -0.19
TGTATGAA | 0.0113
GGGATTCA | 0.0681

Sequence | PBM E-score
AACTTCAT | -0.147
CCTGTTCG | -0.0675
CTCGTATA | -0.115
ACGCTTTG | 0.0213
GCTATCCC | 0.0803
CAGCCTAG | -0.192
AGGACCAG | -0.0263
ATCACGAG | -0.25
AAGCAAAT | -0.24
AGCGTAAG | -0.00114
ATTGAACG | -0.214
ATCGTTGC | -0.103
CTGGTAAA | -0.073
ACTGGCGC | -0.133
CCCTTCTA | -0.239
GGCACAGA | 0.032
AGCCGCCT | 0.023
CGCGGACG | 0.296
ACTCTGAT | -0.106
AGCCCCCG | 0.185
ACAAGATA | -0.194
CGCCAACG | 0.0387
GGACGGAA | 0.26
GCAGCGAC | -0.0343
GGTTGCCA | -0.0357

Sequence | PBM E-score
ATGACTAC | -0.225
CTAAGCGA | -0.0284
CCAGTAAG | -0.203
GCGCAGCA | -0.114
GCTCCTAC | -0.0888
CATGTCGC | -0.0804
AGCTAGGC | 0.00311
ACGTCCCA | -0.184
ACTGCGAA | -0.249
AGGGTAGA | -0.191
GGTACGGA | 0.157
CCACTGTC | -0.176
AGTTAAAG | -0.218
CGCTTCTA | 0.0227
TGCTAGCA | -0.176
GCACACTA | -0.0548
AAGTGCGA | 0.00701
CCGCCTTC | -0.00226
GCGTTTAA | 0.183
CCCGAAGG | 0.219
AGAACGCG | 0.113
CCAGGAAA | -0.104
CGCGCGAA | 0.196
ACCATCTG | -0.102
CCTTCCTA | -0.383

Sequence | PBM E-score
GACGGCGA | 0.0437
ACATTCCG | 0.243
AACGAAGT | -0.253
AAGCGAAA | 0.0588
ACCGTGGC | -0.0125
ATGATGAC | -0.0975
AATCAAAG | -0.129
AACACATG | -0.264
CTCAGCAA | -0.163
CAGGGCTA | -0.258
AGTCTATA | -0.309
AATTAAAG | -0.0509
CACTCAAA | -0.197
CGGGCAGA | 0.231
AGAAGACG | -0.112
GAACAACA | -0.155
CAGTGCGG | 0.122
CTTTCTAC | -0.196
CTAAACTC | 0.112
TCATTACA | -0.105
ATTACATA | -0.266
AGATTACT | -0.0847
GCGGTGTA | -0.063
AGATACCT | -0.0612
CTAGAAAG | -0.0821

Sequence | PBM E-score
GGGCAATA | 0.159
ATATCAGC | 0.0739
CGACTTTA | -0.112
TGAATGAA | -0.155
AAAGACGG | -0.0371
AACGTGTA | -0.228
AATATGGA | -0.205
ATACAGCC | 0.0195
CACCCCGC | 0.198
ACGCACCT | -0.185
CTTGTGAC | -0.124
CCATACCA | -0.09
ATGGACCG | 0.227
CATGGTTC | -0.0797
ATTGAGGC | -0.026
AGCTCAGA | -0.192
CAGGTTCC | -0.0688
GGTCTTAC | 0.0304
ACTTGGCC | -0.00291
CGCCTTCA | -0.186
AACTGGAA | -0.118
CCGCTTGC | 0.0503
CATCAATC | -0.109
GAGGAACC | -0.0105
AGTGTGTG | -0.23

Sequence | PBM E-score
GAGCATTA | -0.104
AGGAACGC | -0.121
CTTTCGGA | 0.399
CTCTCTAA | -0.341
ATCTCCTA | -0.188
CTGAGCCC | -0.19
ACTACACC | 0.0164
AGGTCTCC | -0.14
CAATAGAA | -0.194
ACGTGCAC | -0.134
GCCTGAGC | -0.197
ACTACGGG | 0.212
GTGGCAAA | -0.0776
ATGGGGGG | -0.125
CTAGCATC | -0.153
ACAACTGT | -0.217
CGGGACGC | 0.222
AAGAGCTC | -0.142
ACCCGATC | 0.244
AAGTGCAG | -0.268
CACCTAGG | -0.164
AGTGCCTA | -0.237
